# Source: the supplement of paper PMC12230231
# ± gives the standard deviation of the averaged measurements. Restriction of a single-cycle SIVsab GFP reporter by TRIM5α v1-loop variants in CRFK cells. Human variants: read share among cells still uninfected after two challenges over input, higher = gained restriction. Rhesus variants: share among infected cells over input, higher = lost restriction. Reporter dose not given per row. No active / inactive call per row; the paper calls a change when both replicates lie above its controls (mean + 2 SD of stop or wild-type variants, or the top frameshift score). Residues outside the varied loop are taken from Swiss-Prot. The paper reads the human single-substitution scores as noise; they and the rhesus combinations repeat poorly (rank correlation 0.3 to 0.4), indel scores repeat only for the top variants, rhesus substitutions well (0.9).
# System: SIVsab (simian immunodeficiency virus of sabaeus monkeys), single-cycle GFP reporter, in CRFK cells
# Test: enrichment among uninfected cells over input (fold); higher = stronger restriction
# Conditions: library: human / rhesus combinations
# Protocol: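 Pools of CRFK cells expressing variants of the TRIM5α v1 loop were challenged with the single-cycle reporter, sorted by GFP and sequenced; mean of two replicates.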
row,Sequence,enrichment
1,"MASGILVNVKEEVTCPICLELLTQPLSLDCGHSFCQACLTANHKKSMLDKGESSCPVCRISYQPENIRPNRHVANIVEKLREVKLSPEGQKVDHCARHGEKLLLFCQEDGKVICWLCERSQEHRGHHTFLTEEVAREYQVKLQAALEMLRQKQQEAEELEADIREEKASWKTQIQYDKTNVLADFEQLRDILDWEESNELQNLEKEEEDILKSLTNSETEMVQQTQSLRELISDLEHRLQGSVMELLQGVDGVIKRTENVTLKKPETFPKNQRRVFRAPDLKGMLEVFRELTDVRRYWVDVTVAPNNISCAVISEDKRQVSSPKPQIIYGARGTLYTFPSFTNFNYCTGILGSQSITSGKHYWEVDVSKKTAWILGVCAGFQPDAMCNIEKNENYQPKYGYWVIGLEEGVKCSAFQDSSFHTPSVPFIVPLSVIICPDRVGVFLDYEACTVSFFNITNHGFLIYKFSHCSFSQPVFPYLNPRKCGVPMTLCSPSS [human TRIM5α, 330-340 = GARGTLYTFPSFT]",0.0202 ± 0.02
2,"MASGILVNVKEEVTCPICLELLTQPLSLDCGHSFCQACLTANHKKSMLDKGESSCPVCRISYQPENIRPNRHVANIVEKLREVKLSPEGQKVDHCARHGEKLLLFCQEDGKVICWLCERSQEHRGHHTFLTEEVAREYQVKLQAALEMLRQKQQEAEELEADIREEKASWKTQIQYDKTNVLADFEQLRDILDWEESNELQNLEKEEEDILKSLTNSETEMVQQTQSLRELISDLEHRLQGSVMELLQGVDGVIKRTENVTLKKPETFPKNQRRVFRAPDLKGMLEVFRELTDVRRYWVDVTVAPNNISCAVISEDKRQVSSPKPQIIYQARGTLFTFPTFTNFNYCTGILGSQSITSGKHYWEVDVSKKTAWILGVCAGFQPDAMCNIEKNENYQPKYGYWVIGLEEGVKCSAFQDSSFHTPSVPFIVPLSVIICPDRVGVFLDYEACTVSFFNITNHGFLIYKFSHCSFSQPVFPYLNPRKCGVPMTLCSPSS [human TRIM5α, 330-340 = QARGTLFTFPTFT]",0.434 ± 0.097
3,"MASGILVNVKEEVTCPICLELLTQPLSLDCGHSFCQACLTANHKKSMLDKGESSCPVCRISYQPENIRPNRHVANIVEKLREVKLSPEGQKVDHCARHGEKLLLFCQEDGKVICWLCERSQEHRGHHTFLTEEVAREYQVKLQAALEMLRQKQQEAEELEADIREEKASWKTQIQYDKTNVLADFEQLRDILDWEESNELQNLEKEEEDILKSLTNSETEMVQQTQSLRELISDLEHRLQGSVMELLQGVDGVIKRTENVTLKKPETFPKNQRRVFRAPDLKGMLEVFRELTDVRRYWVDVTVAPNNISCAVISEDKRQVSSPKPQIIYGARGTRYPSLVNFNYCTGILGSQSITSGKHYWEVDVSKKTAWILGVCAGFQPDAMCNIEKNENYQPKYGYWVIGLEEGVKCSAFQDSSFHTPSVPFIVPLSVIICPDRVGVFLDYEACTVSFFNITNHGFLIYKFSHCSFSQPVFPYLNPRKCGVPMTLCSPSS [human TRIM5α, 330-340 = GARGTRYPSLV]",0.000738 ± 7.1e-05
4,"MASGILVNVKEEVTCPICLELLTQPLSLDCGHSFCQACLTANHKKSMLDKGESSCPVCRISYQPENIRPNRHVANIVEKLREVKLSPEGQKVDHCARHGEKLLLFCQEDGKVICWLCERSQEHRGHHTFLTEEVAREYQVKLQAALEMLRQKQQEAEELEADIREEKASWKTQIQYDKTNVLADFEQLRDILDWEESNELQNLEKEEEDILKSLTNSETEMVQQTQSLRELISDLEHRLQGSVMELLQGVDGVIKRTENVTLKKPETFPKNQRRVFRAPDLKGMLEVFRELTDVRRYWVDVTVAPNNISCAVISEDKRQVSSPKPQIIYQAPGTLFQTLVNFNYCTGILGSQSITSGKHYWEVDVSKKTAWILGVCAGFQPDAMCNIEKNENYQPKYGYWVIGLEEGVKCSAFQDSSFHTPSVPFIVPLSVIICPDRVGVFLDYEACTVSFFNITNHGFLIYKFSHCSFSQPVFPYLNPRKCGVPMTLCSPSS [human TRIM5α, 330-340 = QAPGTLFQTLV]",0.0032 ± 0.0006
5,"MASGILVNVKEEVTCPICLELLTQPLSLDCGHSFCQACLTANHKKSMLDKGESSCPVCRISYQPENIRPNRHVANIVEKLREVKLSPEGQKVDHCARHGEKLLLFCQEDGKVICWLCERSQEHRGHHTFLTEEVAREYQVKLQAALEMLRQKQQEAEELEADIREEKASWKTQIQYDKTNVLADFEQLRDILDWEESNELQNLEKEEEDILKSLTNSETEMVQQTQSLRELISDLEHRLQGSVMELLQGVDGVIKRTENVTLKKPETFPKNQRRVFRAPDLKGMLEVFRELTDVRRYWVDVTVAPNNISCAVISEDKRQVSSPKPQIIYQAPGTLYTFPTFVNFNYCTGILGSQSITSGKHYWEVDVSKKTAWILGVCAGFQPDAMCNIEKNENYQPKYGYWVIGLEEGVKCSAFQDSSFHTPSVPFIVPLSVIICPDRVGVFLDYEACTVSFFNITNHGFLIYKFSHCSFSQPVFPYLNPRKCGVPMTLCSPSS [human TRIM5α, 330-340 = QAPGTLYTFPTFV]",0.233 ± 0.06
6,"MASGILVNVKEEVTCPICLELLTQPLSLDCGHSFCQACLTANHKKSMLDKGESSCPVCRISYQPENIRPNRHVANIVEKLREVKLSPEGQKVDHCARHGEKLLLFCQEDGKVICWLCERSQEHRGHHTFLTEEVAREYQVKLQAALEMLRQKQQEAEELEADIREEKASWKTQIQYDKTNVLADFEQLRDILDWEESNELQNLEKEEEDILKSLTNSETEMVQQTQSLRELISDLEHRLQGSVMELLQGVDGVIKRTENVTLKKPETFPKNQRRVFRAPDLKGMLEVFRELTDVRRYWVDVTVAPNNISCAVISEDKRQVSSPKPQIIYGAPGTRYTFQSLTNFNYCTGILGSQSITSGKHYWEVDVSKKTAWILGVCAGFQPDAMCNIEKNENYQPKYGYWVIGLEEGVKCSAFQDSSFHTPSVPFIVPLSVIICPDRVGVFLDYEACTVSFFNITNHGFLIYKFSHCSFSQPVFPYLNPRKCGVPMTLCSPSS [human TRIM5α, 330-340 = GAPGTRYTFQSLT]",0.162 ± 0.13
7,"MASGILVNVKEEVTCPICLELLTQPLSLDCGHSFCQACLTANHKKSMLDKGESSCPVCRISYQPENIRPNRHVANIVEKLREVKLSPEGQKVDHCARHGEKLLLFCQEDGKVICWLCERSQEHRGHHTFLTEEVAREYQVKLQAALEMLRQKQQEAEELEADIREEKASWKTQIQYDKTNVLADFEQLRDILDWEESNELQNLEKEEEDILKSLTNSETEMVQQTQSLRELISDLEHRLQGSVMELLQGVDGVIKRTENVTLKKPETFPKNQRRVFRAPDLKGMLEVFRELTDVRRYWVDVTVAPNNISCAVISEDKRQVSSPKPQIIYGARGTRFPSFVNFNYCTGILGSQSITSGKHYWEVDVSKKTAWILGVCAGFQPDAMCNIEKNENYQPKYGYWVIGLEEGVKCSAFQDSSFHTPSVPFIVPLSVIICPDRVGVFLDYEACTVSFFNITNHGFLIYKFSHCSFSQPVFPYLNPRKCGVPMTLCSPSS [human TRIM5α, 330-340 = GARGTRFPSFV]",0.00146 ± 0.00053
8,"MASGILVNVKEEVTCPICLELLTQPLSLDCGHSFCQACLTANHKKSMLDKGESSCPVCRISYQPENIRPNRHVANIVEKLREVKLSPEGQKVDHCARHGEKLLLFCQEDGKVICWLCERSQEHRGHHTFLTEEVAREYQVKLQAALEMLRQKQQEAEELEADIREEKASWKTQIQYDKTNVLADFEQLRDILDWEESNELQNLEKEEEDILKSLTNSETEMVQQTQSLRELISDLEHRLQGSVMELLQGVDGVIKRTENVTLKKPETFPKNQRRVFRAPDLKGMLEVFRELTDVRRYWVDVTVAPNNISCAVISEDKRQVSSPKPQIIYGAPGTRYTFQTFTNFNYCTGILGSQSITSGKHYWEVDVSKKTAWILGVCAGFQPDAMCNIEKNENYQPKYGYWVIGLEEGVKCSAFQDSSFHTPSVPFIVPLSVIICPDRVGVFLDYEACTVSFFNITNHGFLIYKFSHCSFSQPVFPYLNPRKCGVPMTLCSPSS [human TRIM5α, 330-340 = GAPGTRYTFQTFT]",0.09 ± 0.033
9,"MASGILVNVKEEVTCPICLELLTQPLSLDCGHSFCQACLTANHKKSMLDKGESSCPVCRISYQPENIRPNRHVANIVEKLREVKLSPEGQKVDHCARHGEKLLLFCQEDGKVICWLCERSQEHRGHHTFLTEEVAREYQVKLQAALEMLRQKQQEAEELEADIREEKASWKTQIQYDKTNVLADFEQLRDILDWEESNELQNLEKEEEDILKSLTNSETEMVQQTQSLRELISDLEHRLQGSVMELLQGVDGVIKRTENVTLKKPETFPKNQRRVFRAPDLKGMLEVFRELTDVRRYWVDVTVAPNNISCAVISEDKRQVSSPKPQIIYQAPGTRYPTLVNFNYCTGILGSQSITSGKHYWEVDVSKKTAWILGVCAGFQPDAMCNIEKNENYQPKYGYWVIGLEEGVKCSAFQDSSFHTPSVPFIVPLSVIICPDRVGVFLDYEACTVSFFNITNHGFLIYKFSHCSFSQPVFPYLNPRKCGVPMTLCSPSS [human TRIM5α, 330-340 = QAPGTRYPTLV]",0.00418 ± 0.0028

# Same assay, conditions: library: insertions and deletions
row,Sequence,enrichment
1,"MASGILVNVKEEVTCPICLELLTQPLSLDCGHSFCQACLTANHKKSMLDKGESSCPVCRISYQPENIRPNRHVANIVEKLREVKLSPEGQKVDHCARHGEKLLLFCQEDGKVICWLCERSQEHRGHHTFLTEEVAREYQVKLQAALEMLRQKQQEAEELEADIREEKASWKTQIQYDKTNVLADFEQLRDILDWEESNELQNLEKEEEDILKSLTNSETEMVQQTQSLRELISDLEHRLQGSVMELLQGVDGVIKRTENVTLKKPETFPKNQRRVFRAPDLKGMLEVFRELTDVRRYWVDVTVAPNNISCAVISEDKRQVSSPKPQIIYGARGTRYQTFVNFNYYCTGILGSQSITSGKHYWEVDVSKKTAWILGVCAGFQPDAMCNIEKNENYQPKYGYWVIGLEEGVKCSAFQDSSFHTPSVPFIVPLSVIICPDRVGVFLDYEACTVSFFNITNHGFLIYKFSHCSFSQPVFPYLNPRKCGVPMTLCSPSS [human TRIM5α, 1-codon duplication at 344]",0.355 ± 0.12
2,"MASGILVNVKEEVTCPICLELLTQPLSLDCGHSFCQACLTANHKKSMLDKGESSCPVCRISYQPENIRPNRHVANIVEKLREVKLSPEGQKVDHCARHGEKLLLFCQEDGKVICWLCERSQEHRGHHTFLTEEVAREYQVKLQAALEMLRQKQQEAEELEADIREEKASWKTQIQYDKTNVLADFEQLRDILDWEESNELQNLEKEEEDILKSLTNSETEMVQQTQSLRELISDLEHRLQGSVMELLQGVDGVIKRTENVTLKKPETFPKNQRRVFRAPDLKGMLEVFRELTDVRRYWVDVTVAPNNISCAVISEDKRQVSSPKPQIIYARGTRYQTFVNFNYCTGILGSQSITSGKHYWEVDVSKKTAWILGVCAGFQPDAMCNIEKNENYQPKYGYWVIGLEEGVKCSAFQDSSFHTPSVPFIVPLSVIICPDRVGVFLDYEACTVSFFNITNHGFLIYKFSHCSFSQPVFPYLNPRKCGVPMTLCSPSS [human TRIM5α, 1-codon deletion at 330]",1.23 ± 1.1
3,"MASGILVNVKEEVTCPICLELLTQPLSLDCGHSFCQACLTANHKKSMLDKGESSCPVCRISYQPENIRPNRHVANIVEKLREVKLSPEGQKVDHCARHGEKLLLFCQEDGKVICWLCERSQEHRGHHTFLTEEVAREYQVKLQAALEMLRQKQQEAEELEADIREEKASWKTQIQYDKTNVLADFEQLRDILDWEESNELQNLEKEEEDILKSLTNSETEMVQQTQSLRELISDLEHRLQGSVMELLQGVDGVIKRTENVTLKKPETFPKNQRRVFRAPDLKGMLEVFRELTDVRRYWVDVTVAPNNISCAVISEDKRQVSSPKPQIIYGARGTRYQYQTFVNFNYCTGILGSQSITSGKHYWEVDVSKKTAWILGVCAGFQPDAMCNIEKNENYQPKYGYWVIGLEEGVKCSAFQDSSFHTPSVPFIVPLSVIICPDRVGVFLDYEACTVSFFNITNHGFLIYKFSHCSFSQPVFPYLNPRKCGVPMTLCSPSS [human TRIM5α, 2-codon duplication at 336]",0.302 ± 0.12
